# Article PMC11062913
# Target: Negative elongation factor A (UniProt Q9H3P2)
# Assay: cross-link between two proteins; cross-linking mass spectrometry
substance,measurement,value
Negative elongation factor B,listed as a hit,yes
